# According to publication PMC4336329 (PLoS ONE, 2015):
# Hit rate of the full screen: of about 310,000 compounds, about 2,200 (0.71%) showed an effect of 50% or more. Effects have a minus sign here. The list shows a part of the results.
# Molecular target: human ether-à-go-go-related gene (hERG) potassium channel (human, UniProt Q12809)
# Assay: primary screen, population patch clamp on CHO cells stably expressing hERG
# Sequence of human ether-à-go-go-related gene (hERG) potassium channel (Q12809 whole entry, looked up): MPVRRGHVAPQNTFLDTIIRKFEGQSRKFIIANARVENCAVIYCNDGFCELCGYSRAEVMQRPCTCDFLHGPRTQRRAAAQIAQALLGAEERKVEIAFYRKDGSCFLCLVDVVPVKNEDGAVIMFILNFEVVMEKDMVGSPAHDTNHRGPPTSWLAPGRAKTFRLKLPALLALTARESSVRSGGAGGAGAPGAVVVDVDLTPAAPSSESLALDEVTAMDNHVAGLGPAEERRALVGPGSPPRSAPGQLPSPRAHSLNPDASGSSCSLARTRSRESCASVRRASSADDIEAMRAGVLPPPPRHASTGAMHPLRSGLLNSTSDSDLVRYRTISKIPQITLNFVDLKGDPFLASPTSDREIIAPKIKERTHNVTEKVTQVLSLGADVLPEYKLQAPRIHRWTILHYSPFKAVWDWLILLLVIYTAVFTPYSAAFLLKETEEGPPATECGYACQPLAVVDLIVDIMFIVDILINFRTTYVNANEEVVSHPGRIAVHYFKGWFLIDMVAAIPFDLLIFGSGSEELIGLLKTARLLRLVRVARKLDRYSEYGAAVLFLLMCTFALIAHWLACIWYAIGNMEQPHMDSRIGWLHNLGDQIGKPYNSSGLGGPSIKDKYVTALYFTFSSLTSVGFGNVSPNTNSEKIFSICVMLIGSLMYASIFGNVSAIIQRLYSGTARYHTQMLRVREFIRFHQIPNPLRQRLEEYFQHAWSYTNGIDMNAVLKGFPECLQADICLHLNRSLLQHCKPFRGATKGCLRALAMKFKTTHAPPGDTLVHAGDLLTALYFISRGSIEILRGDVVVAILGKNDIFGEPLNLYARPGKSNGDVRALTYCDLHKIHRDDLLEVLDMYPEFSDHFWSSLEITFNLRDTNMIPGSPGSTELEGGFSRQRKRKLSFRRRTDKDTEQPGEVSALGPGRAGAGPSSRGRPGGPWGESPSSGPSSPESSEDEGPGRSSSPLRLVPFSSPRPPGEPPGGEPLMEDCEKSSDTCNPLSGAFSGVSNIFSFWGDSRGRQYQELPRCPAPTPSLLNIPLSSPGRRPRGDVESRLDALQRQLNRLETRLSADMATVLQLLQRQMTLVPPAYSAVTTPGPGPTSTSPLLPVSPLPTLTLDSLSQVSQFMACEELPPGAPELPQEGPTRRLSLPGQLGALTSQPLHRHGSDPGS
row,Compound,"hERG current change (%, negative = inhibition) at 1uM [%]"
1,COC/C=C/C1=CC2=CC(=O)C(C)(OC(=O)c3cnc4ccccc4n3)C(=O)C2=CN1C1CCCC1 (stereo not shown),7.78
2,O=c1c(O)c(-c2ccc(O)cc2)oc2cc(O)cc(O)c12,11.3
3,O=C1NC(=O)C(=Cc2ccc(SC3CCCCC3)o2)C(=O)N1,11.7
4,CCCCn1c(=O)c(C(=O)Nc2nnc(C(C)C)s2)c(O)c2ccccc21,5.61
5,CCN(CC)S(=O)(=O)c1cccc(-c2nnc(C(=O)c3ccc(C(F)(F)F)cc3)o2)c1,10
6,O=[N+]([O-])c1ccc(Cl)c(S(=O)(=O)/N=C(/c2ccccc2)N2CCOCC2)c1,17.4
7,Cc1ccc(NC(=O)CSc2nnc(C)c(=O)[nH]2)cc1C,5.34
8,CCOc1cc(C2C(C(=O)c3ccc(C)o3)=C(O)C(=O)N2CCc2ccccc2)ccc1O (stereo not shown),12.3
9,Cc1cc(=O)oc2cc(NC(=O)c3cc([N+](=O)[O-])ccc3N3CCOCC3)ccc12,11.5
10,COc1ccc(C(OCC(O)CNCCc2ccccc2)c2ccc(OC)cc2)cc1.O=C(O)C(=O)O (stereo not shown),-7.18
11,Cc1ccccc1Cn1nc(C)c(NC(=O)c2sc3ccccc3c2Cl)c1C,6.52
12,COC(=O)Cc1ccc(NC(=S)Nc2cccc(C)n2)cc1,14.7
13,O=C(NC(c1cccnc1)C(F)(F)F)c1cc(COc2ccc3c(c2)CCCC3)on1 (stereo not shown),9.95
14,COc1cccc(/C=N/NC(=S)NCCc2ccccc2)c1,13.9
15,O=C(Nc1ccc(OCC(F)(F)C(F)F)c(C(F)(F)F)c1)c1ccccc1,9.25
16,Cc1ccc(-c2noc(CCCN3C(=O)c4ccccc4C3=O)n2)cc1,5.8
17,O=C(/C=C/c1ccc(S(=O)(=O)NCc2ccco2)cc1)NCc1ccccc1Cl,3.3
18,CCCCn1c(N)c(N(CC(C)C)C(=O)CSc2ccc([N+](=O)[O-])cc2)c(=O)[nH]c1=O,-4.44
19,Cc1ccc(N2CC(C(=O)NCCC3=CCCCC3)CC2=O)cc1 (stereo not shown),1.88
20,CCC1C(=O)N=C(SCC(=O)Nc2cccc3ccccc23)NC1=O (stereo not shown),-6.66
21,Cc1nc(Oc2ccc(S(=O)(=O)N3CCOCC3)cc2Cl)c2c3c(sc2n1)CCCC3,8.8
22,CC(=O)Nc1ccc(C(=O)COC(=O)c2nc3nc(C)cc(C)n3n2)cc1,5.04

row,Compound,"hERG current change (%, negative = inhibition) at 1uM [%]"
1,COc1ccc(CCNC(=O)CCC(=O)N2CCOc3ccc(C)cc32)cc1OC,13.9
2,COc1ccc(CCNC(=O)Cc2cc(OCc3ccccc3)c(OC)cc2[N+](=O)[O-])cc1OC,0.64
3,COc1cccc(NS(=O)(=O)c2ccc3[nH]cc(C(=O)NCCC(C)C)c(=O)c3c2)c1,5.44
4,CCOc1ccc2nc(C)cc(Nc3ccc(N4CCOCC4)cc3)c2c1.Cl,-60.6
5,Cn1c(=O)[nH]c(=O)c2c1nc(N1CCCCC1)n2CC(O)CN1CCCCC1 (stereo not shown),8.07
6,O=C(Nc1nnc(Cc2ccccc2)s1)c1cnccn1,12.6
7,CC(C)CNC(=O)CSc1ccc(S(=O)(=O)N2CCN(C)CC2)cn1,10.7
8,CCNc1nc(N)c(C(=C(C#N)C#N)c2ccccc2)s1,12.1
9,C=CCN(CC=C)C(=O)COC(=O)c1ccc(Sc2ncn[nH]2)c([N+](=O)[O-])c1,10.1
10,CC1CCN(c2c(NCc3ccc(C(=O)NCc4ccco4)cc3)c(=O)c2=O)CC1,6.87
11,COc1ccc(CC(=O)Nc2ccc(-c3nnc(-c4ccccc4)o3)cc2)cc1OC,-1.29
12,COc1ccc2[nH]c(O)c(N=NC(=N)N)c2c1,11.9
13,O=C(Cn1c2ccccc2c2nc3n(c(=O)c21)CCCS3)Nc1ccccc1,6.47
14,COc1ccc(OCc2cc(C(=O)NCc3cccc(C)n3)no2)c(Cl)c1,6.97
15,CCOc1ccc(N(CC(=O)NC2CC2)S(=O)(=O)c2ccc(C)cc2)cc1,19.9
16,CCCCOc1ccc(OC(=O)c2cccnc2)cc1,10.5
17,CCN(CC(=O)Nc1cccc(OC)c1)C(=O)c1ccncc1,15.4
18,COc1cc(C(=O)OCC(=O)NC2CCCCCC2)ccc1OCC(C)C,18.2
19,CCN(C(=O)c1cc2cccc(OC)c2oc1=O)C1CCCCC1,7.51
20,COc1ccc(OCCSc2nnc(-c3cccnc3)n2N)cc1,8.95
21,CCOc1ccc(S(=O)(=O)N2CCCC(C(=O)NC3CC3)C2)cc1Cl (stereo not shown),8.25
